In patent US20080280890A1, “HYDROXYLAMINE COMPOUNDS AND METHODS OF THEIR USE” (priority 2007, published 2008):
For at least one compound, name, drawing or mass did not settle the structure.

System: lipid peroxidation
Experiment: Lipid peroxidation inhibition (method of Ohkawa)
Format: biochemical
Conditions: for Lipid Peroxidation % Inhibition: 10 uM

Row | Structure (SMILES) | Lipid Peroxidation % Inhibition [%] | % Lipid Peroxidation inhibition (at 1 uM) [%]
1 | CC1(C)C=C(CO)C(C)(C)N1O [Compound 8] | 81.6 | –
2 | CC1(C)CC(O)C(Br)C(C)(C)N1O (stereo not shown) [Compound 9, 3-Bromo-2,2,6,6-tetramethyl-piperidine-1,4-diol] | 87.9 | 57.2
3 | CC1(C)CC(C#N)CC(C)(C)N1O.Cl [Compound 12, 4-cyano-1-hydroxyl-2,2,6,6-tetramethylpiperidine] | 92.1 | –
4 | CC1(C)CC(Oc2nsnc2Cl)CC(C)(C)N1O.Cl [Compound 13, 4-(4-chloro-1,2,5-thiadiazol-3-yloxyl)-1-hydroxyl-2,2,6,6-tetramethylpiperidine] | 93.4 | 82.9
5 | CC1(C)CC(Cl)CC(C)(C)N1O.Cl [Compound 21, 4-chloro-1-hydroxy-2,2,6,6-tetramethylpiperidine] | 94.1 | 83.8
6 | CC1(C)COC(=O)C(C)(C)N1O.Cl [Compound 39, N-Hydroxyl-3,3,5,5-tetramethylmorpholin-2-one] | – | 44.8
7 | CCCCC1(O)CC(C)(C)N(O)C(C)(C)C1.Cl [Compound 41, 1,4-dihydroxy-4-n-butyl-2,2,6,6-tetramethylpiperidine] | – | 81.8
8 | CC1(C)CC(O)(c2ccccc2)CC(C)(C)N1O.Cl [Compound 42, 1,4-Dihydroxy-4-phenyl-2,2,6,6-tetrmethylpiperidine] | – | 83.8
9 | CC1(C)CC(OCc2ccccc2)CC(C)(C)N1O.Cl [Compound 43, 4-Benzyloxy-1-hydroxy-2,2,6,6-tetramethylpiperidine] | – | 88.5
10 | CC1(C)CC(Oc2nsnc2-c2ccccc2)CC(C)(C)N1O.Cl [Compound 44, 1-hydroxy-4-(4-phenyl-1,2,5-thiadiazol-3-yloxy)-2,2,6,6-tetramethylpiperidine] | – | 83.3
